# Data published in PubChem BioAssay AID720647 (Broad Institute, 2013).
# Out of some 380,000 compounds screened, about 1,300 (0.34%) were called active. Inconclusive means that the source gave no clear call. Such entries were picked first, then a sample of the others.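 How the source made its calls: active means drop in luminescence signal, shown as inhibition above about 50% in the replicate tests (limit read from the data, passing the limit was not always enough); inconclusive means probably only some replicates passing the limit; inactive means the rest.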
# Test system: Drosophila bursicon receptor LGR2 (rickets)
# Test: inhibitors of bursicon-induced LGR2 CRE-luciferase signal, primary screen, cell-based, HEK293, CRE-luciferase reporter, bursicon stimulation (AID 720647);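 further: agonist challenge used bursicon conditioned medium at about half maximal strength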
# Details: bursicon-stimulated, 4 h, at 9.99 µM, stronger effect = higher value
row,SMILES,inhibition
1,O=C(c1cc(-c2ccccc2Cl)nc2ccc(Br)cc12)N1CCN(c2ccccn2)CC1,active: 67.6%
2,CC(C)C(=O)Nc1ccc2c(c1)C(=O)N(C)[C@@H]1CC[C@@H](CC(=O)NCc3ccc(F)cc3)O[C@@H]1CO2,inactive: -2.05%
3,C[C@H](CO)N1C[C@H](C)[C@@H](CN(C)Cc2ccc3c(c2)OCO3)Oc2c(NC(=O)Nc3ccc(C(F)(F)F)cc3)cccc2C1=O,active: 59.9%
4,COc1ccccc1CCn1cnc(-c2ccccc2F)c1CC(C)C,inconclusive: 62.9%
5,Cc1ccc(Cl)cc1N1CCN(C(=O)c2cc3c(=O)[nH]c4ccccc4c3n2C)CC1,active: 64.5%
6,Cc1cc(C)n(CC(=O)NNC(=O)c2ccc(NC(=O)CC#N)cc2)n1,inactive: -2.68%
7,COc1ccc(OC)c(Nc2nc(NCc3ccco3)c3ccccc3n2)c1,inconclusive: 32.1%
8,Cc1csc(NC(=O)c2ccc(OCC3CCCO3)cc2)n1 (configuration not stated),inconclusive: 69.7%
9,CCCCCCCCCCn1ccc(=N)cc1,inactive: 35.8%
10,COc1ccc(-n2cc(C(=O)c3ccccc3O)cn2)cc1,inconclusive: 48%
11,COc1cccc(C#Cc2cnc3c(c2)C(=O)N([C@@H](C)CO)C[C@@H](C)[C@@H](CN(C)C(=O)C2CC2)O3)c1,inactive: -0.82%
12,C[C@H]1CCCCO[C@H](CN(C)C(=O)Nc2cccc3ccccc23)[C@@H](C)CN([C@@H](C)CO)C(=O)c2cc(NS(=O)(=O)c3cn(C)cn3)ccc2O1,inconclusive: -11.8%
13,Oc1cccc(-c2nc3c4c(ncn3n2)-c2ccccc2CC42CCCC2)c1,inconclusive: 55%
14,Cc1noc(C)c1S(=O)(=O)Nc1cccc2c1O[C@H](CN(C)C(=O)Nc1ccc(F)cc1)[C@H](C)CN([C@H](C)CO)C2=O,inconclusive: -17.8%
15,CCOC(=O)C(=Cc1cc(=O)c(OC)co1)C(=O)OCC,inconclusive: 56.4%
16,O=C(Nc1cccc(-c2ccc(N3CCOCC3)nn2)c1)c1ccccc1Cl,inactive: -62.4%
17,O=C(CN1C(=O)c2ccccc2C1=O)N1CCN(C2c3ccccc3-c3ccccc32)CC1,inconclusive: 13%
18,C[C@H]1CN([C@@H](C)CO)C(=O)c2cccc(NC(=O)Nc3cccc4ccccc34)c2O[C@H]1CN(C)Cc1ccc(-c2ccccc2)cc1,inactive: 6.42%
19,O=S1(=O)CCN(CCCc2ccccc2)CC1,inconclusive: 58.2%
20,COc1ccc(C(=O)Nc2ccc3[nH]ccc3c2)cc1,inconclusive: 48%
21,O=c1cc(N2CCc3ccccc32)[nH]c(=O)n1-c1ccccc1Cl,inactive: -15.6%
22,C=CC[C@@H](Cc1ccc(F)cc1)C(=O)OC[C@H]1CCCN1C(=O)[C@@H](CC=C)CC(=O)N[C@H](CO)Cc1ccccc1,inconclusive: 14%
23,O=C(NN1C(=O)/C(=C/c2ccc(O)c([N+](=O)[O-])c2)SC1=S)c1ccccc1Cl,inconclusive: 63.8%
24,Cc1cccc(/C(N)=N/OC(=O)c2ccco2)c1,inconclusive: 57.1%
25,Cc1sc2ncnc(N3CCC(C(=O)Nc4ccc(OC(F)F)c(Cl)c4)CC3)c2c1C,inconclusive: 68.5%
26,O=C(CCCn1c(=O)c2sccc2n(Cc2ccc(F)cc2)c1=O)NCc1ccco1,inconclusive: 56.8%

row,SMILES,inhibition
1,C=CCn1c(C)cc(C(=O)COC(=O)[C@@H](NC(=O)c2ccccc2Cl)C(C)C)c1C,inconclusive: 42.9%
2,O=C(C[C@@H]1CC[C@H]2[C@@H](COC[C@@H](O)CN2CC2CCCCC2)O1)NCC1CC1,inactive: 11%
3,CC(=O)c1ccc(NC(=O)c2cnn3ccccc23)cc1,inconclusive: 70.6%
4,O=C(N/N=C/c1ccc(-c2ccccc2[N+](=O)[O-])o1)c1cncc(Br)c1,inconclusive: 22.3%
5,O=C1CN(C(=O)COC(=O)CNS(=O)(=O)c2ccccc2)c2ccccc2N1,inconclusive: -36.3%
6,Cn1nnnc1Sc1ncnc2scc(-c3cc4ccccc4o3)c12,active: 106%
7,COc1ccc(NC(=O)Nc2cccc([N+](=O)[O-])c2)cc1Cl,inconclusive: 13.8%
8,C[C@H]1CN([C@@H](C)CO)C(=O)c2cccc(NC(=O)CCCCCC(=O)Nc3ccccc3N)c2O[C@H]1CN(C)C(=O)NC1CCCCC1,inactive: 12.1%
9,CNC(=O)C[C@@H]1CC[C@@H]2[C@H](COC[C@@H](O)CN2Cc2ccc(Cl)c(Cl)c2)O1,inactive: -3.41%
10,Cc1ccc2nc(-c3ccc4c(c3)OCCO4)cn2c1,active: 91.3%
11,O=C(N/N=C/c1ccccc1[N+](=O)[O-])c1ccc2c(c1)OCCO2,inconclusive: 38.2%
12,Cc1ccc(-c2nc(-c3ccccn3)no2)cc1[N+](=O)[O-],inconclusive: 54.3%
13,CCN(CC)C(=O)c1cc([N+](=O)[O-])cc2c1-c1ccc([N+](=O)[O-])cc1C2=C(C#N)C#N,inconclusive: 40.2%
14,COc1ccc(OCc2cccc(C(=O)Nn3cc([N+](=O)[O-])cn3)c2)cc1,active: 98.9%
15,COc1cccc(CCc2nnc(CCC(=O)NCCc3cccc(C)n3)o2)c1,inconclusive: 64.3%
16,O=C(COC(=O)CNC(=O)c1ccccc1F)Nc1cccnc1Cl,inconclusive: 52.4%
17,O=C(Nc1ccc([N+](=O)[O-])cc1)Nc1ccc(N2CCOCC2)c2nonc12,active: 66.8%
18,O=C(CCl)N1c2ccccc2SCC1c1ccccc1 (configuration not stated),inactive: 6.23%
19,N/C(=N\OC(=O)/C=C/c1ccc(Br)cc1)c1ccccn1,inconclusive: 16.5%
20,COc1ccc(C(C(=O)Nc2ccc3c(c2)OCO3)N(C)C(=O)Cc2c[nH]c3ccccc23)cc1 (configuration not stated),inconclusive: 54.9%
21,COc1ccccc1C(=O)O/N=C(\N)c1ccccn1,inconclusive: 62.4%
22,C[C@H]1CN([C@@H](C)CO)C(=O)Cc2cc(NS(=O)(=O)c3ccc(Cl)cc3)ccc2O[C@@H]1CN(C)Cc1ccccc1,inconclusive: 34.2%
23,O=C1NC[C@H](c2ccccc2)OC(=O)[C@H](Cc2ccc(F)cc2)CC/C=C/C[C@@H]1CC(=O)N(CCO)Cc1ccccc1,inconclusive: 19%
24,COc1cc(CN2CC3(CCN(S(=O)(=O)c4cn(C)cn4)CC3)c3c(n(C)c4cc(OC)ccc34)[C@@H]2CO)cc(OC)c1,inactive: -11.2%
25,O=C1CSC(=S)N1c1ccc(O)cc1,inconclusive: 47.3%
26,O=C(C[C@@H]1C[C@H]2c3cc(NS(=O)(=O)c4ccccc4)ccc3O[C@H]2[C@H](CO)O1)NC1CCCC1,inactive: -17.5%

row,SMILES,inhibition
1,COc1ccc2nc(C)cc(N/N=C/c3ccc(F)cc3)c2c1,active: 69.2%
2,CCCCCCNC(=O)CC(c1ccccc1)c1cc(Br)ccc1O (configuration not stated),inconclusive: 26.4%
3,COCC#Cc1ccc2c(c1)O[C@H](CN(C)S(=O)(=O)c1cccc(F)c1)[C@@H](C)CN([C@H](C)CO)S2(=O)=O,inconclusive: 88.8%
4,O=C(NCc1cccnc1)/C(=C\c1ccc(-c2ccc(Cl)c(Cl)c2)o1)S(=O)(=O)c1ccccc1,active: 103%
5,COc1cccc(CNCCc2c[nH]c3ccccc23)c1OCc1ccccc1,inactive: 16.2%
6,C[C@H]1CCCCO[C@@H](CN(C)C(=O)Nc2ccccc2)[C@@H](C)CN([C@@H](C)CO)C(=O)c2cc(NC(=O)NC3CCCCC3)ccc2O1,active: 62.9%
7,Cc1cccc(-c2ccc([C@H]3[C@@H](CO)N4CCCCN(C(=O)c5ccncc5)C[C@@H]34)cc2)c1,inconclusive: 48.9%
8,Cc1ccc(C2C(C#N)=C(N)Oc3cc(N)ccc32)cc1 (configuration not stated),inactive: 3.5%
9,CN(Cc1cc(Cl)cc(Cl)c1)CC(C(=O)c1ccccc1)c1ccccc1 (configuration not stated),inconclusive: 48.3%
10,CCOc1cc(/C=C/C(=O)Nc2ccc(C(=O)NCCN(CC)CC)cc2)ccc1OCC(C)C,active: 103%
11,O=C(O)c1cccc(NC(=S)N/N=C/c2cccnc2)c1,inconclusive: 54.5%
12,Cc1oc(-c2ccc(Cl)cc2)nc1CN1CCC(C(=O)NCCCN2CCCC2=O)CC1,inactive: 15.7%
13,C[C@@H]1CN([C@@H](C)CO)C(=O)c2cccc(NC(=O)Nc3ccc(C(F)(F)F)cc3)c2O[C@H]1CN(C)C(=O)Nc1cccc2ccccc12,inconclusive: -8.34%
14,C=CC[n+]1c(-c2ccc(Cl)cc2Cl)csc1Nc1ccc(NC(C)=O)cc1,inconclusive: 2.59%
15,O=C(OCCN1C(=O)c2cccc3c(N4CCOCC4)ccc(c23)C1=O)c1ccccc1Cl,active: 75.6%
16,COC(=O)c1ccc(NC(=O)C(=O)c2cccn2C)cc1,inconclusive: 63.8%
17,CCS(=O)(=O)N1CC2(CN(C(=O)c3ccc(F)cc3)[C@H](CO)c3[nH]c4cc(OC)ccc4c32)C1,inactive: -9.05%
18,COc1cc(C(c2c(C)[nH][nH]c2=O)c2c(C)[nH][nH]c2=O)ccc1OC(C)C,inactive: 5.64%
19,Cn1nnnc1Sc1ncnc2scc(-c3cccc(S(C)(=O)=O)c3)c12,active: 85.2%
20,COc1ccccc1NC(=O)N[C@H]1CC[C@@H](CCn2cc(-c3cccnc3)nn2)O[C@@H]1CO,inactive: -12.8%
21,CCOc1ccc(-c2ccc(SC)nn2)cc1,active: 99.1%
22,COc1ccc(-c2nc(-c3cccs3)no2)cc1,active: 80.6%
23,C[C@@H]1CN([C@H](C)CO)S(=O)(=O)c2ccc(-c3ccccc3)cc2O[C@H]1CN(C)C,inactive: -4.53%
24,C=C1C(=O)[C@]23C[C@H]1CCC2[C@@]1(C)C(C[C@@H]3O)[C@](C)(C(=O)OC)CC[C@@H]1OC(C)=O (some centres not stated),active: 92.4%
25,Cc1cc(=O)[nH]c(NC(=O)Cc2ccccc2)n1,inactive: -3.77%
